The target in this assay is T1, GFP-SNX32 WT (UniProt Q86XE0).
T1 sequence: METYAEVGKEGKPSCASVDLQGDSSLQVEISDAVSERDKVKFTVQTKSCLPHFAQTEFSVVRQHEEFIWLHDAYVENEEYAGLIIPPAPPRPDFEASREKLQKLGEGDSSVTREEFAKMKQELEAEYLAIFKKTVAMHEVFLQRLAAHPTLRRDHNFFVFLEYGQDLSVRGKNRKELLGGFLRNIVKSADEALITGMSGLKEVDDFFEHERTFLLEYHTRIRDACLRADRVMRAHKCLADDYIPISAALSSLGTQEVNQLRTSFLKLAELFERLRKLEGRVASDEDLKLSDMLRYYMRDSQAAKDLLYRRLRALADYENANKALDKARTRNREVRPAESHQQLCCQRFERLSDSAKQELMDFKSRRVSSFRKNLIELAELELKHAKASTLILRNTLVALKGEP
The assay can be described thus: co-IP.

As to “Cation Independent Mannose-6-Phosphate Receptor (a stretch of the chain, chain not printed)”, the ratio of CIMPR to GFP band intensity stood at 0.38.
